The text below walks through data of publication PMC7819943, “Rice protein-binding microarrays: a tool to detect cis-acting elements near promoter regions in rice”.

The list shows a part of the results.

This experiment deals with T1, OsWOX13 (Oryza sativa, UniProt Q5QMM3 1-267).
T1 sequence: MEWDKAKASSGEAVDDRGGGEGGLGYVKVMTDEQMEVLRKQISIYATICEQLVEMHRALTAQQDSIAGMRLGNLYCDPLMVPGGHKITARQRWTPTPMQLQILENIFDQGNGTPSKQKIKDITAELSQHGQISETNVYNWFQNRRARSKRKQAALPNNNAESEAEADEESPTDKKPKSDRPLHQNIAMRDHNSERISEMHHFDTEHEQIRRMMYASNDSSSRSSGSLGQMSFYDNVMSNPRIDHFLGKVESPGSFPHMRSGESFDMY
The experiment in a line: protein-binding microarray (RPBM); PBS, 2% BSA, 51.3 ng/ul salmon testes DNA, 50 uM zinc acetate, 200 nM TF, 25 C, 1 h; high values mean tight binding. The conditions noted are these: protein: recombinant; tags: N-terminal polyhistidine and DsRed monomer fusion (pET32a); label: CyDye5-dUTP incorporated in the synthesized complementary strand; 3' TTTTT single-stranded linker to array surface; dsDNA, one strand shown. The gist of the method: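 Polyhistidine-tagged DsRed fusions of transcription factors, joined at the N-terminus, were expressed in E. coli BL21-CodonPlus and isolated on Ni–NTA. They were incubated at 200 nM for 1 h at 25 °C on a custom Agilent array, double-stranded and BSA-blocked, in PBS with 2% BSA, salmon testes DNA and 50 µM zinc acetate. The binding signal is per-feature fluorescence intensity (arbitrary units) read on an Axon 4000B scanner after washing.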
Consider “TGCTAATTTATATGTAACACATTTATCAGACCCAGTAGAACGGAGTCACCTAGTGCAG”, for which the binding signal was 31700 fluorescence intensity (a.u.).

In the case of “GGCAATGACAGCAGTTAATGATGGGGATGAGCAGATCGGCCGGAGTCACCTAGTGCAG”, the binding signal was 18300 fluorescence intensity (a.u.).

With “AGGTGGAGGATTTAATAGAATTAATTTAACGTATAGATGTCGGAGTCACCTAGTGCAG”, the binding signal is 3560 fluorescence intensity (a.u.).

Consider “ATGATTTCTTACTAGATAGGATTAAGTTTCAAGAGTTAATCGGAGTCACCTAGTGCAG”, for which the binding signal is 10600 fluorescence intensity (a.u.).

As for “AAACTAATCGATTAGACATGCTCGTGGTCATGAGCGGCGTCGGAGTCACCTAGTGCAG”, the binding signal is 4800 fluorescence intensity (a.u.).

Take “TGTAATAAATTTGACATATGTTTCATATTCAAGACAATTTCGGAGTCACCTAGTGCAG”: the binding signal is 4710 fluorescence intensity (a.u.).

As for “GAAGCTAATACTTAATTAATCACATATTAATAGATTGCTCCGGAGTCACCTAGTGCAG”, the binding signal is 14200 fluorescence intensity (a.u.).

For the sequence “AAATTGACAAGATAGATCAATATATAATATATCACTACACCGGAGTCACCTAGTGCAG”, the binding signal is 10200 fluorescence intensity (a.u.).

As to “AGCGTCGCCTTAATTGGCCTTCTAAGTGGTAGATGCCGTCCGGAGTCACCTAGTGCAG”, the binding signal was 12600 fluorescence intensity (a.u.).

With “TCTGCGAAACTCACAATCATATCTCAAATTTATGAGTTATCGGAGTCACCTAGTGCAG”, the binding signal is 4230 fluorescence intensity (a.u.).

Regarding “CATGATGGCAATCTCCCGTTGGGCCTACCAGCCGAAAAGTCGGAGTCACCTAGTGCAG”, the binding signal is 7310 fluorescence intensity (a.u.).

Take “TGTGTCGCAATCAATGATAGAGCAGCCGTTCGATCATCTTCGGAGTCACCTAGTGCAG”: the binding signal is 12600 fluorescence intensity (a.u.).

Take “ATATAATTAAATAATATTATCCGTTTTGTAACTATTTGTTCGGAGTCACCTAGTGCAG”: the binding signal is 23400 fluorescence intensity (a.u.).

Regarding “TTTACATGAATTTGATTATTCTAACACTAGCTTTTAAGTTCGGAGTCACCTAGTGCAG”, the binding signal was 3560 fluorescence intensity (a.u.).

With “CTATCATGTGATAGATTTCCTTAACGTGTACAAGAAACATCGGAGTCACCTAGTGCAG”, the binding signal was 3590 fluorescence intensity (a.u.).

Consider “CAATGTTAATTTAACAAAACTAAATTTACATTTTAGATATCGGAGTCACCTAGTGCAG”, for which the binding signal was 25300 fluorescence intensity (a.u.).

In the case of “ATGGCGTAATTAGGCTCAAAAGATTTGTCTCTCAATTTATCGGAGTCACCTAGTGCAG”, the binding signal is 7950 fluorescence intensity (a.u.).

“GATAATTAGGAATAGATACCTGTAAAATAAGTAGGAGGATCGGAGTCACCTAGTGCAG”: the binding signal was 19900 fluorescence intensity (a.u.).

In the case of “CCCACAACTGATTACCATGGATGCAAACAAGTTCCACATGCGGAGTCACCTAGTGCAG”, the binding signal was 20200 fluorescence intensity (a.u.).

For the sequence “GGTCGTGATTTACGTCTGAATGAGGTTTGTCTTGGTATTTCGGAGTCACCTAGTGCAG”, the binding signal is 17800 fluorescence intensity (a.u.).

Turning to “ATAGCTTGTTTAATAATAAATTTATAAGATGACATGATTTCGGAGTCACCTAGTGCAG”, the binding signal is 8570 fluorescence intensity (a.u.).

In the case of “GCCCGTAATTAAATGTAATGTGTTGTTCGATTATCCGGTGCGGAGTCACCTAGTGCAG”, the binding signal was 29200 fluorescence intensity (a.u.).

As for “AGATAGGTGTGGACGGACGTGATTGGCTGCGTATCAGTTGCGGAGTCACCTAGTGCAG”, the binding signal was 12700 fluorescence intensity (a.u.).

As for “TTCAGTTTCTAGCTGGAAGAGACCTCCTATCATATATTTCCGGAGTCACCTAGTGCAG”, the binding signal is 53600 fluorescence intensity (a.u.).

On to “GGTCATTCCTGTGTTTTGTAATCCTCTGTTTTATACTTATCGGAGTCACCTAGTGCAG”, for which the binding signal was 4120 fluorescence intensity (a.u.).

Regarding “CAAACTAATTTTGGAAAGCATGAAGCACAAAATTAGAATGCGGAGTCACCTAGTGCAG”, the binding signal is 6900 fluorescence intensity (a.u.).

For the sequence “AAAATTAACATAATTATCAGTACGGATTCATACTCCGTAACGGAGTCACCTAGTGCAG”, the binding signal was 29700 fluorescence intensity (a.u.).

In the case of “ATTAATTAATTAGTCGGCCAACCTAGCTGTTGACTGGGAACGGAGTCACCTAGTGCAG”, the binding signal is 55900 fluorescence intensity (a.u.).

For the sequence “TGATCAATGAACAATCAATCATGGACATAGATAGATCACGCGGAGTCACCTAGTGCAG”, the binding signal is 22700 fluorescence intensity (a.u.).

In the case of “CTGCACTAATTGCACTCCCATCTAAAATTTATCGAATTTTCGGAGTCACCTAGTGCAG”, the binding signal was 8030 fluorescence intensity (a.u.).

Turning to “GTCTAATAATTGTTGGTTGTTAGAACTTAGAAGGCTATGTCGGAGTCACCTAGTGCAG”, the binding signal was 11000 fluorescence intensity (a.u.).

Turning to “ATATCAAATTTTCTTCCTGTTAATCAGAATAAGAGGTCAACGGAGTCACCTAGTGCAG”, the binding signal was 4400 fluorescence intensity (a.u.).

Turning to “GTATAACTGTTGTTTCCTCATTTACAGTTCCCCATTTCCCCGGAGTCACCTAGTGCAG”, the binding signal is 4710 fluorescence intensity (a.u.).

Consider “TGAAATTGATGAAAATTAGTGTTTCTAAAATTAAATTTCGCGGAGTCACCTAGTGCAG”, for which the binding signal is 47800 fluorescence intensity (a.u.).

As to “TGACTCATTAGCATATAATTAATTAAGTATAGCTAATAAACGGAGTCACCTAGTGCAG”, the binding signal was 7250 fluorescence intensity (a.u.).

Regarding “TTGATTAATCAATTATGGTATATCTAGAACCATATATAATCGGAGTCACCTAGTGCAG”, the binding signal was 22700 fluorescence intensity (a.u.).

In the case of “GATTAATTAGGCTCATTAGATTCGTCTCGCAAATTAGTCCCGGAGTCACCTAGTGCAG”, the binding signal is 35000 fluorescence intensity (a.u.).

On to “TAAATAGTTCCAATTAGCATTCAGAAATTGGGGTCTAGATCGGAGTCACCTAGTGCAG”, for which the binding signal is 14100 fluorescence intensity (a.u.).

Consider “AACAGACAGATCATACCCATAATTACAAGTACCGATTATGCGGAGTCACCTAGTGCAG”, for which the binding signal is 7320 fluorescence intensity (a.u.).

For the sequence “CATATATAATAGATTAGCTATAAGGTTGGCTACAATTTTCCGGAGTCACCTAGTGCAG”, the binding signal is 7500 fluorescence intensity (a.u.).

On to “TTTAATTTGTTTATTATACCAGCACTCAGTTAAGATACTTCGGAGTCACCTAGTGCAG”, for which the binding signal was 16500 fluorescence intensity (a.u.).

For “GCTATAAGATTGGCTATAATTTTCTTCTCCTCTCTCTATCCGGAGTCACCTAGTGCAG”, the binding signal is 26600 fluorescence intensity (a.u.).
